Test [1] addresses T1, mouse Transferrin Receptor overexpressed on Hek 293 cells (mouse, UniProt Q62351).
T1 construct: whole, on cells; also called Hek293/mTfR; 293/mTFR
Briefly: MSD-ECL assay, column headed IC50 (values match the cell-based mTfR binding EC50 of Table 7).

Test [2] deals with T1, mouse Transferrin Receptor …. Put plainly: cell-based MSD-ECL binding on Hek293 cells overexpressing mouse TfR. The protocol: Meso-scale Discovery (MSD) Electrochemiluminescesnce (ECL) assays to screen for antibodies or DVDs that bind a desired target antigen expressed on the cell surface were performed as follows: Hek 293 cells overexpressing mouse Transferin Receptor were added onto MSD 96-well plates (MSD Cat# L11 XB-3, lot#2290-EA) which were blocked using blocking buffer (30% FBS Serum (Hyclone) in PBS) at 37° C. for 1 hr. After incubating at RT for 30 min with mild agitation, plates were washed with DPBS 3 times and Abs/DVDs (10,000 ng/ml) were added. After incubating for 1 hr at RT, plates were washed 3 times with DPBS and 25 ul of Goat anti human Sulfo TAG (MSD Cat# R32AC-, Lot# W001162) at 1 μg/ml is added. Following a 1 h incubation at RT for 1 hr, plates are washed and MSD read buffer is added before reading on MSD SECTOR Imager 6000. EC50 values are obtained using Xlfit4 software package

T1 sequence (Q62351 whole entry): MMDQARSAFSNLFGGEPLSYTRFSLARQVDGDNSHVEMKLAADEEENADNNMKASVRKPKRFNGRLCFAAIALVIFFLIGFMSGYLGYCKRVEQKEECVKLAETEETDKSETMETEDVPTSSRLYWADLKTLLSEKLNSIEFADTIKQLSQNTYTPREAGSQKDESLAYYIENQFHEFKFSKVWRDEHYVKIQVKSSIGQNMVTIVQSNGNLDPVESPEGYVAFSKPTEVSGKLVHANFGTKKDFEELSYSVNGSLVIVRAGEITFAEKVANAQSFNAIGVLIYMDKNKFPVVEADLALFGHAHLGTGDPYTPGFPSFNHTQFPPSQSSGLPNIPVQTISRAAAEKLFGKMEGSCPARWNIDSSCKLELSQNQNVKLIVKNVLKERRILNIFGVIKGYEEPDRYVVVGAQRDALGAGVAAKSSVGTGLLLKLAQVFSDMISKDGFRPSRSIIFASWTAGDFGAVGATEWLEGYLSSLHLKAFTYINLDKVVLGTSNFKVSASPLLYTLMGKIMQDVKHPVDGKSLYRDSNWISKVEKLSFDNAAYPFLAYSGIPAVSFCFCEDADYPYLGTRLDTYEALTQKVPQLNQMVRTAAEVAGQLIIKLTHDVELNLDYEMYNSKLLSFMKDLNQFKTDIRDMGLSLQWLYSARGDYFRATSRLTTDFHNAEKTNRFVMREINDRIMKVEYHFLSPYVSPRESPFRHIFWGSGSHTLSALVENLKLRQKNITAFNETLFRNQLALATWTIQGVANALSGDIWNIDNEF

B1: DVD2576 (bispecific antibody)
VH: [sequence of about 120 residues omitted]ASTKGPEVQLVESGGGLVQPGNSLTLSCVASGFTFSNYGMHWIRQAPKKGLEWIAMIYYDSSKMNYADTVKGRFTISRDNSKNTLYLEMNSLRSEDTAMYYCAVPTSHYVVDVWGQGVSVTVSS
VL: [sequence of about 100 residues omitted]RTVAAPDIQMTQSPASLSASLEEIVTITCQASQDIGNWLAWYQQKPGKSPQLLIYGATSLADGVPSRFSGSRSGTQFSLKISRVQVEDIGIYYCLQAYNTPWTFGGGTKLELKR
notes: DVD-Ig, outer AB004 (Her2), inner AB221 (TfR), HG-short/LK-short; dual variable regions only; constant regions not assigned; also called Her2SSTfR DVD2576
In test [1], B1 came in with an IC50 of 3.4 nM. The same molecule showed an EC50 in test [2] of 3.4 nM.

B2: DVD2575 (bispecific antibody)
VH: EVQLVESGGGLVQPGNSLTLSCVASGFTFSNYGMHWIRQAPKKGLEWIAMIYYDSSKMNYADTVKGRFTISRDNSKNTLYLEMNSLRSEDTAMYYCAVPTSHYVVDVWGQGVSVTVSSASTKGP[sequence of about 120 residues omitted]
VL: DIQMTQSPASLSASLEEIVTITCQASQDIGNWLAWYQQKPGKSPQLLIYGATSLADGVPSRFSGSRSGTQFSLKISRVQVEDIGIYYCLQAYNTPWTFGGGTKLELKRTVAAP[sequence of about 100 residues omitted]
notes: DVD-Ig; also called TfRSSHer2 DVD2575
Molecule B2 registered a concentration for half-maximal inhibition (IC50) in test [1] of 0.1 nM. Besides, in test [2], the 50% effective concentration (EC50) is 0.11 nM.

One may read the IC50 as the concentration at which inhibition is half-maximal. One may read the EC50 as the concentration that produces a half-maximal response. Lower therefore signals higher potency in that assay.

The record behind these values is US20140212423A1 (AbbVie / Abbott, published 2014).
